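Cells were grown in 96-well plates and exposed to each compound for 48 hours at five concentrations; endpoints were interpolated linearly between bracketing concentrations, or set to the highest concentration if not reached. GI50 is the concentration that inhibits growth by half.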 Calls of active or inactive are those of the source. Rule as the data show it: active = GI50 up to about 1.1 µM and inactive = higher.
Assays:
Test in all cases: NCI tumour cell line growth inhibition, 48 h
SK-OV-3 = system: SK-OV-3
ACHN = system: ACHN
NCI/ADR-RES = system: NCI/ADR-RES
K562 = system: K562
HOP-62 = system: HOP-62
SK-MEL-28 = system: SK-MEL-28
SF-539 = system: SF-539
NCI-H226 = system: NCI-H226
UACC-257 = system: UACC-257
SR = system: SR
OVCAR-4 = system: OVCAR-4
KM12 = system: KM12
TK-10 = system: TK-10
MDA-MB-435 = system: MDA-MB-435
HCC 2998 = system: HCC 2998
MOLT-4 = system: MOLT-4
NCI-H23 = system: NCI-H23
SNB-75 = system: SNB-75
M14 = system: M14
SW-620 = system: SW-620
OVCAR-3 = system: OVCAR-3
CCRF-CEM = system: CCRF-CEM
RPMI-8226 = system: RPMI-8226
SK-MEL-5 = system: SK-MEL-5
SF-295 = system: SF-295
SNB-19 = system: SNB-19
SF-268 = system: SF-268
PC-3 = system: PC-3
HT-29 = system: HT-29
HL-60 = system: HL-60
HOP-92 = system: HOP-92
IGROV-1 = system: IGROV-1
HCT-15 = system: HCT-15
NCI-H522 = system: NCI-H522
MCF7 = system: MCF7
RXF 393 = system: RXF 393
OVCAR-5 = system: OVCAR-5
BT-549 = system: BT-549
NCI-H460 = system: NCI-H460
A549 = system: A549
UACC-62 = system: UACC-62
U-251 = system: U-251
EKVX = system: EKVX
UO-31 = system: UO-31
SK-MEL-2 = system: SK-MEL-2
OVCAR-8 = system: OVCAR-8
Hs-578T = system: Hs-578T

O=C(/C=C/c1ccccc1)Nc1ccccc1F [N-(2-FLUOROPHENYL)CINNAMAMIDE]
GI50 (SK-OV-3): inactive: > 100 µM | GI50 (ACHN): inactive: > 100 µM | GI50 (NCI/ADR-RES): inactive: 55.1 µM | GI50 (K562): inactive: 19.2 µM | GI50 (HOP-62): inactive: > 100 µM | GI50 (SK-MEL-28): inactive: > 100 µM | GI50 (SF-539): inactive: > 100 µM | GI50 (NCI-H226): inactive: 88.1 µM | GI50 (UACC-257): inactive: > 100 µM | GI50 (SR): inactive: 32.1 µM | GI50 (OVCAR-4): inactive: 37.6 µM | GI50 (KM12): inactive: 59.4 µM | GI50 (TK-10): inactive: > 100 µM | GI50 (MDA-MB-435): inactive: > 100 µM | GI50 (HCC 2998): inactive: 97.1 µM | GI50 (MOLT-4): inactive: 15.2 µM | GI50 (NCI-H23): inactive: > 100 µM | GI50 (SNB-75): inactive: > 100 µM | GI50 (M14): inactive: > 100 µM | GI50 (SW-620): inactive: > 100 µM | GI50 (OVCAR-3): inactive: > 100 µM | GI50 (CCRF-CEM): inactive: 49.5 µM | GI50 (RPMI-8226): inactive: 30.4 µM | GI50 (SK-MEL-5): inactive: 64 µM | GI50 (SF-295): inactive: 74.1 µM | GI50 (SNB-19): inactive: 62.2 µM | GI50 (SF-268): inactive: > 100 µM | GI50 (PC-3): inactive: 45.9 µM | GI50 (HT-29): inactive: 46 µM | GI50 (HL-60): inactive: 19.8 µM | GI50 (HOP-92): inactive: > 100 µM | GI50 (IGROV-1): inactive: > 100 µM | GI50 (HCT-15): 80.2 µM | GI50 (NCI-H522): inactive: 72.1 µM | GI50 (MCF7): inactive: 81.5 µM | GI50 (RXF 393): inactive: > 100 µM | GI50 (OVCAR-5): inactive: > 100 µM | GI50 (BT-549): inactive: > 100 µM | GI50 (NCI-H460): inactive: > 100 µM | GI50 (A549): inactive: > 100 µM | GI50 (UACC-62): inactive: 47.9 µM | GI50 (U-251): inactive: > 100 µM | GI50 (EKVX): inactive: > 100 µM | GI50 (UO-31): inactive: 68.4 µM | GI50 (SK-MEL-2): inactive: > 100 µM | GI50 (OVCAR-8): inactive: > 100 µM | GI50 (Hs-578T): inactive: > 100 µM
